{
  "source": "the supplement of paper PMC8728848",
  "binders": {"B1": {"name": "Cohesin-hDCIR (Homo sapiens) (protein)", "chain": "LDDLDAVRIKVDTVNAKPGDTVRIPVRFSGIPSKGIANCDFVYSYDPNVLEIIEIEPGDIIVDPNPDKSFDTAVYPDRKIIVFLFAEDSGTGAYAITKDGVFATIVAKVKEGAPNGLSVIKFVEVGGFANNDLVEQKTQFFDGGANVGDTTEPATPTTPVTTPTTTDDLDAASQKYSQLLEKKTTKELVHTTLECVKKNMPVEETAWSCCPKNWKSFSSNCYFISTESASWQDSEKDCARMEAHLLVINTQEEQDFIFQNLQEESAYFVGLSDPEGQRHWQWVDQTPYNESSTFWHPREPSDPNERCVVLNFRKSPKRWGWNDVNCLGPQRSVCEMMKIHLHHHHHH"}},
  "experiment_in_all_cases": "glycan array binding signal (z-score within array); higher = stronger binding",
  "conditions_in_all_cases": "glycan notation: IUPAC condensed, linker removed",
  "key": {"[1]": {"target": "GlcNAc(b1-3)Gal(b1-4)GlcNAc(b1-3)Gal(b1-4)GlcNAc(b1-2)Man(a1-3)[GlcNAc(b1-3)Gal(b1-4)GlcNAc(b1-3)Gal(b1-4)GlcNAc(b1-2)Man(a1-6)]Man(b1-4)GlcNAc(b1-4)[Fuc(a1-6)]GlcNAc", "outline": "(§1)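 Arrays were curated from the Consortium for Functional Glycomics database, 3228 in total, and kept only where the protein sequence was available. Binding is expressed as a within-array Z-score. This score was averaged across arrays of the same protein sequence at different concentrations or buffers and across linkers, and negative values can be read as non-binding.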"}, "[2]": {"target": "GlcNAc(b1-3)Gal(b1-4)GlcNAc(b1-3)Gal(b1-4)GlcNAc(b1-2)[GlcNAc(b1-3)Gal(b1-4)GlcNAc(b1-3)Gal(b1-4)GlcNAc(b1-6)]Man(a1-6)[GlcNAc(b1-3)Gal(b1-4)GlcNAc(b1-3)Gal(b1-4)GlcNAc(b1-2)Man(a1-3)]Man(b1-4)GlcNAc(b1-4)[Fuc(a1-6)]GlcNAc", "outline": "as §1"}, "[3]": {"target": "GlcNAc(b1-3)Gal(b1-4)GlcNAc(b1-3)Gal(b1-4)GlcNAc(b1-3)Gal(b1-4)GlcNAc(b1-2)Man(a1-3)[GlcNAc(b1-3)Gal(b1-4)GlcNAc(b1-3)Gal(b1-4)GlcNAc(b1-3)Gal(b1-4)GlcNAc(b1-2)Man(a1-6)]Man(b1-4)GlcNAc(b1-4)GlcNAc", "outline": "as §1"}, "[4]": {"target": "GlcNAc(b1-3)Gal(b1-4)GlcNAc(b1-3)Gal(b1-4)GlcNAc(b1-3)Gal(b1-4)GlcNAc(b1-2)Man(a1-3)[GlcNAc(b1-3)Gal(b1-4)GlcNAc(b1-3)Gal(b1-4)GlcNAc(b1-3)Gal(b1-4)GlcNAc(b1-2)Man(a1-6)]Man(b1-4)GlcNAc(b1-4)[Fuc(a1-6)]GlcNAc", "outline": "as §1"}, "[5]": {"target": "GlcNAc(b1-3)Gal(b1-4)GlcNAc(b1-3)Gal(b1-4)GlcNAc(b1-3)Gal(b1-4)GlcNAc(b1-2)[GlcNAc(b1-3)Gal(b1-4)GlcNAc(b1-3)Gal(b1-4)GlcNAc(b1-3)Gal(b1-4)GlcNAc(b1-6)]Man(a1-6)[GlcNAc(b1-3)Gal(b1-4)GlcNAc(b1-3)Gal(b1-4)GlcNAc(b1-3)Gal(b1-4)GlcNAc(b1-2)Man(a1-3)]Man(b1-4)GlcNAc(b1-4)[Fuc(a1-6)]GlcNAc", "outline": "as §1"}, "[6]": {"target": "GlcNAc(b1-3)Gal(b1-4)GlcNAc(b1-3)Gal(b1-4)GlcNAc(b1-3)Gal(b1-4)GlcNAc(b1-3)Gal(b1-4)GlcNAc(b1-2)Man(a1-3)[GlcNAc(b1-3)Gal(b1-4)GlcNAc(b1-3)Gal(b1-4)GlcNAc(b1-3)Gal(b1-4)GlcNAc(b1-3)Gal(b1-4)GlcNAc(b1-2)Man(a1-6)]Man(b1-4)GlcNAc(b1-4)GlcNAc", "outline": "as §1"}, "[7]": {"target": "GlcNAc(b1-3)Gal(b1-4)GlcNAc(b1-3)Gal(b1-4)GlcNAc(b1-3)Gal(b1-4)GlcNAc(b1-3)Gal(b1-4)GlcNAc(b1-2)Man(a1-3)[GlcNAc(b1-3)Gal(b1-4)GlcNAc(b1-3)Gal(b1-4)GlcNAc(b1-3)Gal(b1-4)GlcNAc(b1-3)Gal(b1-4)GlcNAc(b1-2)Man(a1-6)]Man(b1-4)GlcNAc(b1-4)[Fuc(a1-6)]GlcNAc", "outline": "as §1"}, "[8]": {"target": "GlcNAc(b1-3)Gal(b1-4)GlcNAc(b1-3)Gal(b1-4)GlcNAc(b1-3)Gal(b1-4)GlcNAc(b1-3)Gal(b1-4)GlcNAc(b1-2)[GlcNAc(b1-3)Gal(b1-4)GlcNAc(b1-3)Gal(b1-4)GlcNAc(b1-3)Gal(b1-4)GlcNAc(b1-3)Gal(b1-4)GlcNAc(b1-6)]Man(a1-6)[GlcNAc(b1-3)Gal(b1-4)GlcNAc(b1-3)Gal(b1-4)GlcNAc(b1-3)Gal(b1-4)GlcNAc(b1-3)Gal(b1-4)GlcNAc(b1-2)Man(a1-3)]Man(b1-4)GlcNAc(b1-4)[Fuc(a1-6)]GlcNAc", "outline": "as §1"}, "[9]": {"target": "GlcNAc(b1-3)Gal(b1-4)GlcNAc(b1-3)Gal(b1-4)GlcNAc(b1-3)GalNAc", "outline": "as §1"}, "[10]": {"target": "GlcNAc(b1-3)Gal(b1-4)GlcNAc(b1-3)GalNAc", "outline": "as §1"}, "[11]": {"target": "GlcNAc(b1-3)Gal(b1-4)GlcNAc(b1-3)[GlcNAc(b1-3)Gal(b1-4)GlcNAc(b1-3)]GalNAc", "outline": "as §1"}, "[12]": {"target": "GlcNAc(b1-3)Gal(b1-4)GlcNAc(b1-6)[Gal(b1-3)]GalNAc", "outline": "as §1"}, "[13]": {"target": "GlcNAc(b1-3)Gal(b1-4)GlcNAc(b1-6)[GlcNAc(b1-3)Gal(b1-3)]GalNAc", "outline": "as §1"}, "[14]": {"target": "GlcNAc(b1-3)Gal(b1-4)GlcNAc(b1-6)[GlcNAc(b1-3)]Gal(b1-4)GlcNAc", "outline": "as §1"}, "GlcNAc(b1-3)GalNAc": {"target": "GlcNAc(b1-3)GalNAc", "outline": "as §1"}, "GlcNAc(b1-3)Man": {"target": "GlcNAc(b1-3)Man", "outline": "as §1"}, "[15]": {"target": "GlcNAc(b1-3)[GlcNAc(b1-4)][GlcNAc(b1-6)]GlcNAc", "outline": "as §1"}, "[16]": {"target": "GlcNAc(b1-3)[GlcNAc(b1-6)]Gal(b1-4)GlcNAc", "outline": "as §1"}, "[17]": {"target": "GlcNAc(b1-3)[GlcNAc(b1-6)]GalNAc", "outline": "as §1"}, "[18]": {"target": "GlcNAc(b1-4)Gal(b1-4)GlcNAc", "outline": "as §1"}, "GlcNAc(b1-4)GlcNAc": {"target": "GlcNAc(b1-4)GlcNAc", "outline": "as §1"}, "[19]": {"target": "GlcNAc(b1-4)GlcNAc(b1-4)GlcNAc", "outline": "as §1"}, "[20]": {"target": "GlcNAc(b1-4)GlcNAc(b1-4)GlcNAc(b1-4)GlcNAc(b1-4)GlcNAc", "outline": "as §1"}, "[21]": {"target": "GlcNAc(b1-4)GlcNAc(b1-4)GlcNAc(b1-4)GlcNAc(b1-4)GlcNAc(b1-4)GlcNAc", "outline": "as §1"}, "[22]": {"target": "GlcNAc(b1-4)[GlcNAc(b1-6)]GalNAc", "outline": "as §1"}, "[23]": {"target": "GlcNAc(b1-6)Gal(b1-4)GlcNAc", "outline": "as §1"}, "GlcNAc(b1-6)GalNAc": {"target": "GlcNAc(b1-6)GalNAc", "outline": "as §1"}, "[24]": {"target": "GlcNAc6S(b1-3)Gal(b1-4)GlcNAc", "outline": "as §1"}, "Kdn(a2-3)Gal(b1-3)GalNAc": {"target": "Kdn(a2-3)Gal(b1-3)GalNAc", "outline": "as §1"}, "Kdn(a2-3)Gal(b1-3)GlcNAc": {"target": "Kdn(a2-3)Gal(b1-3)GlcNAc", "outline": "as §1"}, "Kdn(a2-3)Gal(b1-4)Glc": {"target": "Kdn(a2-3)Gal(b1-4)Glc", "outline": "as §1"}, "Kdn(a2-3)Gal(b1-4)GlcNAc": {"target": "Kdn(a2-3)Gal(b1-4)GlcNAc", "outline": "as §1"}, "[25]": {"target": "Kdn(a2-3)Gal(b1-4)[Fuc(a1-3)]GlcNAc", "outline": "as §1"}, "Kdn(a2-6)Gal(b1-4)GlcNAc": {"target": "Kdn(a2-6)Gal(b1-4)GlcNAc", "outline": "as §1"}, "[26]": {"target": "Man(a1-2)Man(a1-2)Man(a1-3)Man", "outline": "as §1"}, "[27]": {"target": "Man(a1-2)Man(a1-2)Man(a1-6)[Man(a1-3)]Man", "outline": "as §1"}, "Man(a1-2)Man(a1-3)Man": {"target": "Man(a1-2)Man(a1-3)Man", "outline": "as §1"}, "[28]": {"target": "Man(a1-2)Man(a1-3)[Man(a1-2)Man(a1-6)]Man", "outline": "as §1"}},
  "note": "The other results are listed elsewhere or left out.",
  "data": [
    {"binder": "B1", "values": [
      {"measurement": "glycan array binding signal (z-score)", "setting": "[1]", "result": -0.019},
      {"measurement": "glycan array binding signal (z-score)", "setting": "[2]", "result": -0.575},
      {"measurement": "glycan array binding signal (z-score)", "setting": "[3]", "result": 0.39},
      {"measurement": "glycan array binding signal (z-score)", "setting": "[4]", "result": 0.219},
      {"measurement": "glycan array binding signal (z-score)", "setting": "[5]", "result": -0.539},
      {"measurement": "glycan array binding signal (z-score)", "setting": "[6]", "result": 2.58},
      {"measurement": "glycan array binding signal (z-score)", "setting": "[7]", "result": 0.315},
      {"measurement": "glycan array binding signal (z-score)", "setting": "[8]", "result": -0.597},
      {"measurement": "glycan array binding signal (z-score)", "setting": "[9]", "result": 0.446},
      {"measurement": "glycan array binding signal (z-score)", "setting": "[10]", "result": -0.165},
      {"measurement": "glycan array binding signal (z-score)", "setting": "[11]", "result": -0.523},
      {"measurement": "glycan array binding signal (z-score)", "setting": "[12]", "result": -0.024},
      {"measurement": "glycan array binding signal (z-score)", "setting": "[13]", "result": -0.546},
      {"measurement": "glycan array binding signal (z-score)", "setting": "[14]", "result": -0.659},
      {"measurement": "glycan array binding signal (z-score)", "setting": "GlcNAc(b1-3)GalNAc", "result": -0.415},
      {"measurement": "glycan array binding signal (z-score)", "setting": "GlcNAc(b1-3)Man", "result": -0.284},
      {"measurement": "glycan array binding signal (z-score)", "setting": "[15]", "result": -0.436},
      {"measurement": "glycan array binding signal (z-score)", "setting": "[16]", "result": -0.625},
      {"measurement": "glycan array binding signal (z-score)", "setting": "[17]", "result": -0.401},
      {"measurement": "glycan array binding signal (z-score)", "setting": "[18]", "result": -0.214},
      {"measurement": "glycan array binding signal (z-score)", "setting": "GlcNAc(b1-4)GlcNAc", "result": -0.363},
      {"measurement": "glycan array binding signal (z-score)", "setting": "[19]", "result": -0.508},
      {"measurement": "glycan array binding signal (z-score)", "setting": "[20]", "result": -0.508},
      {"measurement": "glycan array binding signal (z-score)", "setting": "[21]", "result": -0.594},
      {"measurement": "glycan array binding signal (z-score)", "setting": "[22]", "result": -0.616},
      {"measurement": "glycan array binding signal (z-score)", "setting": "[23]", "result": 0.077},
      {"measurement": "glycan array binding signal (z-score)", "setting": "GlcNAc(b1-6)GalNAc", "result": 4.02},
      {"measurement": "glycan array binding signal (z-score)", "setting": "[24]", "result": -0.396},
      {"measurement": "glycan array binding signal (z-score)", "setting": "Kdn(a2-3)Gal(b1-3)GalNAc", "result": 0.042},
      {"measurement": "glycan array binding signal (z-score)", "setting": "Kdn(a2-3)Gal(b1-3)GlcNAc", "result": -0.702},
      {"measurement": "glycan array binding signal (z-score)", "setting": "Kdn(a2-3)Gal(b1-4)Glc", "result": -0.606},
      {"measurement": "glycan array binding signal (z-score)", "setting": "Kdn(a2-3)Gal(b1-4)GlcNAc", "result": -0.662},
      {"measurement": "glycan array binding signal (z-score)", "setting": "[25]", "result": -0.218},
      {"measurement": "glycan array binding signal (z-score)", "setting": "Kdn(a2-6)Gal(b1-4)GlcNAc", "result": -0.508},
      {"measurement": "glycan array binding signal (z-score)", "setting": "[26]", "result": -0.287},
      {"measurement": "glycan array binding signal (z-score)", "setting": "[27]", "result": -0.544},
      {"measurement": "glycan array binding signal (z-score)", "setting": "Man(a1-2)Man(a1-3)Man", "result": -0.462},
      {"measurement": "glycan array binding signal (z-score)", "setting": "[28]", "result": -0.698}
    ]}
  ]
}
